In the supplement of paper PMC8728848:
Some of the results follow.

Experiments:
Test in all cases: glycan array binding signal (z-score within array); higher = stronger binding
Conditions in all cases: glycan notation: IUPAC condensed, linker removed
[1] = biological target: Gal(b1-4)GlcNAc(b1-3)Gal(b1-4)GlcNAc(b1-3)Gal(b1-4)GlcNAc
Outline: (§1)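 Glycan array data were curated from 3228 arrays in the Consortium for Functional Glycomics database and kept only where the protein sequence was available. Glycan names were converted to IUPAC-condensed notation, and columns mapping to the same glycan were averaged. The binding signal is a within-array Z-score, averaged across arrays of the same protein sequence at different concentrations or buffers and across linkers. Negative Z-scores can be read as non-binding.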

[2] = biological target: Gal(b1-4)GlcNAc(b1-3)Gal(b1-4)[Fuc(a1-3)]GlcNAc(b1-3)Gal(b1-4)[Fuc(a1-3)]GlcNAc
Outline: as §1

[3] = biological target: Gal(b1-4)GlcNAc(b1-3)GalNAc
Outline: as §1

[4] = biological target: Gal(b1-4)GlcNAc(b1-3)[Gal(b1-4)GlcNAc(b1-6)]Gal(b1-4)GlcNAc
Outline: as §1

[5] = biological target: Gal(b1-4)GlcNAc(b1-3)[GlcNAc(b1-6)]Gal(b1-4)GlcNAc
Outline: as §1

[6] = biological target: Gal(b1-4)GlcNAc(b1-6)Gal(b1-4)GlcNAc
Outline: as §1

[7] = biological target: Gal(b1-4)GlcNAc(b1-6)Gal(b1-4)GlcNAc(b1-6)GalNAc
Outline: as §1

[8] = biological target: Gal(b1-4)GlcNAc(b1-6)GalNAc
Outline: as §1

[9] = biological target: Gal(b1-4)GlcNAc(b1-6)[Gal(b1-3)]GalNAc
Outline: as §1

[10] = biological target: Gal3S(b1-3)GalNAc
Outline: as §1

[11] = biological target: Gal3S(b1-3)GlcNAc
Outline: as §1

[12] = biological target: Gal3S(b1-3)[Fuc(a1-4)]GlcNAc
Outline: as §1

[13] = biological target: Gal3S(b1-4)Glc
Outline: as §1

[14] = biological target: Gal3S(b1-4)Glc6S
Outline: as §1

[15] = biological target: Gal3S(b1-4)GlcNAc
Outline: as §1

[16] = biological target: Gal3S(b1-4)GlcNAc6S
Outline: as §1

[17] = biological target: Gal3S(b1-4)[Fuc(a1-3)]Glc
Outline: as §1

[18] = biological target: Gal3S4S(b1-4)GlcNAc
Outline: as §1

[19] = biological target: Gal3S6S(b1-4)GlcNAc
Outline: as §1

[20] = biological target: Gal3S6S(b1-4)GlcNAc6S
Outline: as §1

[21] = biological target: Gal4S(b1-4)GlcNAc
Outline: as §1

[22] = biological target: Gal4S6S(b1-4)GlcNAc
Outline: as §1

[23] = biological target: Gal6S(b1-4)Glc
Outline: as §1

[24] = biological target: Gal6S(b1-4)Glc6S
Outline: as §1

[25] = biological target: Gal6S(b1-4)GlcNAc
Outline: as §1

[26] = biological target: Gal6S(b1-4)GlcNAc6S
Outline: as §1

[27] = biological target: GalNAc(a1-3)Gal
Outline: as §1

[28] = biological target: GalNAc(a1-3)GalNAc
Outline: as §1

[29] = biological target: GalNAc(b1-3)Gal
Outline: as §1

[30] = biological target: GalNAc(b1-3)Gal(a1-4)Gal(b1-4)GlcNAc
Outline: as §1

[31] = biological target: GalNAc(b1-3)GalNAc
Outline: as §1

[32] = biological target: GalNAc(b1-4)GlcNAc
Outline: as §1

[33] = biological target: Glc(a1-4)Glc
Outline: as §1

[34] = biological target: Glc(a1-6)Glc(a1-6)Glc
Outline: as §1

[35] = biological target: Glc(b1-4)Glc
Outline: as §1

[36] = biological target: Glc(b1-6)Glc
Outline: as §1

[37] = biological target: GlcA(b1-3)Gal
Outline: as §1

[38] = biological target: GlcA(b1-3)GlcNAc
Outline: as §1

[39] = biological target: GlcA(b1-6)Gal
Outline: as §1

[40] = biological target: GlcNAc(a1-3)Gal(b1-4)GlcNAc
Outline: as §1

[41] = biological target: GlcNAc(a1-6)Gal(b1-4)GlcNAc
Outline: as §1

[42] = biological target: GlcNAc(b1-2)Gal(b1-3)GalNAc
Outline: as §1

[43] = biological target: GlcNAc(b1-2)Man(a1-3)[GlcNAc(b1-2)Man(a1-6)]Man(b1-4)GlcNAc(b1-4)GlcNAc
Outline: as §1

[44] = biological target: GlcNAc(b1-3)Gal
Outline: as §1

[45] = biological target: GlcNAc(b1-3)Gal(b1-3)GalNAc
Outline: as §1

[46] = biological target: GlcNAc(b1-3)Gal(b1-4)Glc
Outline: as §1

[47] = biological target: GlcNAc(b1-3)Gal(b1-4)GlcNAc
Outline: as §1

[48] = biological target: GlcNAc(b1-3)Gal(b1-4)GlcNAc(b1-3)Gal(b1-4)GlcNAc
Outline: as §1

[49] = biological target: GlcNAc(b1-3)GalNAc
Outline: as §1

[50] = biological target: GlcNAc(b1-3)Man
Outline: as §1

[51] = biological target: GlcNAc(b1-3)[GlcNAc(b1-4)][GlcNAc(b1-6)]GlcNAc
Outline: as §1

[52] = biological target: GlcNAc(b1-3)[GlcNAc(b1-6)]Gal(b1-4)GlcNAc
Outline: as §1

[53] = biological target: GlcNAc(b1-3)[GlcNAc(b1-6)]GalNAc
Outline: as §1

[54] = biological target: GlcNAc(b1-4)Gal(b1-4)GlcNAc
Outline: as §1

[55] = biological target: GlcNAc(b1-4)GlcNAc
Outline: as §1

[56] = biological target: GlcNAc(b1-4)GlcNAc(b1-4)GlcNAc
Outline: as §1

[57] = biological target: GlcNAc(b1-4)GlcNAc(b1-4)GlcNAc(b1-4)GlcNAc(b1-4)GlcNAc
Outline: as §1

[58] = biological target: GlcNAc(b1-4)GlcNAc(b1-4)GlcNAc(b1-4)GlcNAc(b1-4)GlcNAc(b1-4)GlcNAc
Outline: as §1

[59] = biological target: GlcNAc(b1-4)[GlcNAc(b1-6)]GalNAc
Outline: as §1

[60] = biological target: GlcNAc(b1-6)Gal(b1-4)GlcNAc
Outline: as §1

B1: MCI4 (Toxoplasma gondii), Q9XZH7 (protein)
chain: MRASLPVHLVVCTQLSAVWFGVAKAHGGHRLEPHVPGFLQGFTDITPAGDDVSANVTSSEPAKLDLSCVHSDNKGSRAPTIGEPVPDVSLEQCAAQCKAVDGCTHFTYNDDSKMCHVKEGKPDLYDLTGGKTASRSCDRSCFEQHVSYEGAPDVMTAMVTSQSADCQAACAADPSCEIFTYNEHDQKCTFKGRGFSAFKERGVLGVTSGPKQFCDEGGKLTQEEMEDQISGCIQLSDVGSMTADLEEPMEADSVGACMERCRCDGRCTHFTFNDNTRMCYLKGDKMQLYSSPGDRTGPKSCDSSCFSNGVSYVDDPATDVETVFEISHPIYCQVICAANPLCTVFQWYASEAKCVVKRKGFYKHRKTGVTGVTVGPREFCDFGGSIRDREEADAVGSDDGLNAEATMANSPDFHDEVECVHTGNIGSKAQTIGEVKRASSLSECRARCQAEKECSHYTYNVKSGLCYPKRGKPQFYKYLGDMTGSRTCDTSCLRRGVDYSQGPEVGKPWYSTLPTDCQVACDAEDACLVFTWDSATSRCYLIGSGFSAHRRNDVDGVVSGPYTFCDNGENLQVLEAKDTE
- glycan array binding signal (z-score) [1]: -0.215
- glycan array binding signal (z-score) [2]: -0.212
- glycan array binding signal (z-score) [3]: -0.182
- glycan array binding signal (z-score) [4]: 7.5
- glycan array binding signal (z-score) [5]: -0.214
- glycan array binding signal (z-score) [6]: -0.212
- glycan array binding signal (z-score) [7]: -0.204
- glycan array binding signal (z-score) [8]: -0.201
- glycan array binding signal (z-score) [9]: 5.16
- glycan array binding signal (z-score) [10]: -0.192
- glycan array binding signal (z-score) [11]: -0.22
- glycan array binding signal (z-score) [12]: -0.206
- glycan array binding signal (z-score) [13]: -0.168
- glycan array binding signal (z-score) [14]: -0.217
- glycan array binding signal (z-score) [15]: -0.207
- glycan array binding signal (z-score) [16]: -0.193
- glycan array binding signal (z-score) [17]: -0.213
- glycan array binding signal (z-score) [18]: -0.217
- glycan array binding signal (z-score) [19]: -0.217
- glycan array binding signal (z-score) [20]: -0.228
- glycan array binding signal (z-score) [21]: -0.201
- glycan array binding signal (z-score) [22]: -0.165
- glycan array binding signal (z-score) [23]: -0.181
- glycan array binding signal (z-score) [24]: -0.206
- glycan array binding signal (z-score) [25]: -0.198
- glycan array binding signal (z-score) [26]: -0.205
- glycan array binding signal (z-score) [27]: -0.141
- glycan array binding signal (z-score) [28]: -0.226
- glycan array binding signal (z-score) [29]: -0.201
- glycan array binding signal (z-score) [30]: -0.194
- glycan array binding signal (z-score) [31]: -0.2
- glycan array binding signal (z-score) [32]: -0.19
- glycan array binding signal (z-score) [33]: -0.2
- glycan array binding signal (z-score) [34]: -0.212
- glycan array binding signal (z-score) [35]: -0.181
- glycan array binding signal (z-score) [36]: -0.199
- glycan array binding signal (z-score) [37]: -0.219
- glycan array binding signal (z-score) [38]: -0.189
- glycan array binding signal (z-score) [39]: -0.211
- glycan array binding signal (z-score) [40]: -0.123
- glycan array binding signal (z-score) [41]: -0.203
- glycan array binding signal (z-score) [42]: -0.219
- glycan array binding signal (z-score) [43]: -0.224
- glycan array binding signal (z-score) [44]: -0.21
- glycan array binding signal (z-score) [45]: -0.019
- glycan array binding signal (z-score) [46]: -0.184
- glycan array binding signal (z-score) [47]: -0.196
- glycan array binding signal (z-score) [48]: -0.216
- glycan array binding signal (z-score) [49]: -0.203
- glycan array binding signal (z-score) [50]: -0.207
- glycan array binding signal (z-score) [51]: -0.202
- glycan array binding signal (z-score) [52]: -0.185
- glycan array binding signal (z-score) [53]: -0.215
- glycan array binding signal (z-score) [54]: -0.228
- glycan array binding signal (z-score) [55]: -0.217
- glycan array binding signal (z-score) [56]: -0.184
- glycan array binding signal (z-score) [57]: -0.198
- glycan array binding signal (z-score) [58]: -0.215
- glycan array binding signal (z-score) [59]: -0.206
- glycan array binding signal (z-score) [60]: -0.196
